Some of the results follow.

This test addresses T1, OsWOX13 (Oryza sativa, UniProt Q5QMM3 1-267).
T1 sequence: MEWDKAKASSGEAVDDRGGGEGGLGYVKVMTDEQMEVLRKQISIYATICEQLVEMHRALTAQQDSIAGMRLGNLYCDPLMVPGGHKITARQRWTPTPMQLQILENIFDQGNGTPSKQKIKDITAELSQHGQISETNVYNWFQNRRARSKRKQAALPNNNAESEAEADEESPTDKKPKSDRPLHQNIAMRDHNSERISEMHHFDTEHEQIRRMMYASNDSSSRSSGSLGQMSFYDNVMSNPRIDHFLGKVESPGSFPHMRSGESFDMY
The test can be described thus: protein-binding microarray (RPBM); PBS, 2% BSA, 51.3 ng/ul salmon testes DNA, 50 uM zinc acetate, 200 nM TF, 25 C, 1 h; high values mean tight binding. The settings on record: protein: recombinant; tags: N-terminal polyhistidine and DsRed monomer fusion (pET32a); label: CyDye5-dUTP incorporated in the synthesized complementary strand; 3' TTTTT single-stranded linker to array surface; dsDNA, one strand shown. The method in brief: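 Transcription factors, each fused N-terminally to a polyhistidine tag and DsRed, were expressed in E. coli BL21-CodonPlus and purified on Ni–NTA. A custom Agilent array was made double-stranded by primer extension with Cy5-dUTP and blocked with 2% BSA. It was incubated with 200 nM protein in PBS, 2% BSA, salmon testes DNA and 50 µM zinc acetate at 25 °C for 1 h, then washed. The binding signal is per-feature fluorescence intensity (arbitrary units) read on an Axon 4000B scanner.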
In the case of “TCGTAATTTACAAATAAATAAGGTGCGATTGACAAATAACCGGAGTCACCTAGTGCAG”, the binding signal was 29000 fluorescence intensity (a.u.). Regarding “CCCCTTCATCAGTGCCTAATTAGCTGTAGTGTCGGTTAGGCGGAGTCACCTAGTGCAG”, the binding signal was 13400 fluorescence intensity (a.u.). Under “TAATAACGAATTAATTAGATTTAATAAATTCATATCGCAGCGGAGTCACCTAGTGCAG” stands 23500 fluorescence intensity (a.u.); under “ACTAAAATTTGATAAAATTTATTTTGCCTATAATATAAACCGGAGTCACCTAGTGCAG”, 6120 fluorescence intensity (a.u.); under “CCCCTCTTAATTATTCAACCCTCCCAGAAATATGACTCATCGGAGTCACCTAGTGCAG”, 3360 fluorescence intensity (a.u.).

In the case of “TTATAATTAGTCCGAAAATCGTGACTGCAAACATATCCATCGGAGTCACCTAGTGCAG”, the binding signal is 14600 fluorescence intensity (a.u.).

“TCCAATTTACTAATTACCACTTTATACGTACAATTATTGACGGAGTCACCTAGTGCAG”: the binding signal was 23500 fluorescence intensity (a.u.).

As for “CACACACTAATTAATGTCGTACGAATGCTACGTACAGTCACGGAGTCACCTAGTGCAG”, the binding signal is 11600 fluorescence intensity (a.u.).

Turning to “TCACGGTCACATTAATTACCTAATGTCTGTCAACTTCATGCGGAGTCACCTAGTGCAG”, the binding signal is 10600 fluorescence intensity (a.u.). Regarding “ACAATAAATTTTAAATGGATTTATGTCTCGTGTGATGTGTCGGAGTCACCTAGTGCAG”, the binding signal was 22800 fluorescence intensity (a.u.). As for “TTTAATTGGTTAAATGAACTATGTAATGTTATAATTATATCGGAGTCACCTAGTGCAG”, the binding signal was 33200 fluorescence intensity (a.u.).

Take “ATAGTTGTGATTAGATTGTGACGTACACAATGAGTATGCACGGAGTCACCTAGTGCAG”: the binding signal was 45300 fluorescence intensity (a.u.).

Regarding “GTGCAAAATTATCAATCACAAGCACAAGTAGTCAATCACTCGGAGTCACCTAGTGCAG”, the binding signal was 31600 fluorescence intensity (a.u.). Under “CGTTTAACAGGCTTGTTTCAAAGCGCTCAGGATCTAAGTGCGGAGTCACCTAGTGCAG” stands 5050 fluorescence intensity (a.u.). Under “TTGATTTATAAATCTAATTTAGGCTTGGGAAAAGAACTTTCGGAGTCACCTAGTGCAG” stands 21100 fluorescence intensity (a.u.). Turning to “GTCCTAAAATTACATATGTAAATTCTAAAATTATATATGTCGGAGTCACCTAGTGCAG”, the binding signal was 3590 fluorescence intensity (a.u.). Consider “CCTGAATTGACTCTAGCTTATTGCCTTCGAATTAGGCTTGCGGAGTCACCTAGTGCAG”, for which the binding signal was 15300 fluorescence intensity (a.u.). With “CCAACTGATTTAAACTCCCAATTGAAAGATCTTAAAACTTCGGAGTCACCTAGTGCAG”, the binding signal was 20700 fluorescence intensity (a.u.).

Take “CGCCGATTGGCCGTCGCTGTCGATCGGTCGATGGTGAGGTCGGAGTCACCTAGTGCAG”: the binding signal is 8300 fluorescence intensity (a.u.).

For “ATGATAGATGGACACCGCATGAAGTATTGATGTGATGTGGCGGAGTCACCTAGTGCAG”, the binding signal was 42100 fluorescence intensity (a.u.). Consider “CTAACAAATTGAAAGCAATACATAATACATGTAGATCCTTCGGAGTCACCTAGTGCAG”, for which the binding signal is 17400 fluorescence intensity (a.u.). Consider “ATTAATTAATTGAAAATAATCTCTAAATACCATAGCAATCCGGAGTCACCTAGTGCAG”, for which the binding signal was 46500 fluorescence intensity (a.u.).

Take “AGTGTACTCATCTTAAATTTTAATTACCACCAGCCCAATTCGGAGTCACCTAGTGCAG”: the binding signal is 4890 fluorescence intensity (a.u.).

In the case of “AAATTAATTAGGTCGACTTGCCCAACGAGACAAATATAATCGGAGTCACCTAGTGCAG”, the binding signal is 3340 fluorescence intensity (a.u.).

Regarding “TTTATAATTAACATCCGAATAGACAACGAATCCACTCTCACGGAGTCACCTAGTGCAG”, the binding signal is 19800 fluorescence intensity (a.u.). In the case of “CCTGATTTAGCACATGTGGTACACGGACAGGTTGATCGATCGGAGTCACCTAGTGCAG”, the binding signal was 14700 fluorescence intensity (a.u.). “CCATTAATTTTAAAGTGGAAGAGTATTTCATACCGCGGCCCGGAGTCACCTAGTGCAG”: the binding signal is 8400 fluorescence intensity (a.u.).

With “ATCTTAATTTTATGATATGACGTTTTATTCTGTACTATCTCGGAGTCACCTAGTGCAG”, the binding signal is 11100 fluorescence intensity (a.u.). In the case of “GTCAATTATCCATGTTAACCACAATCTAGTACAATACTGCCGGAGTCACCTAGTGCAG”, the binding signal is 14700 fluorescence intensity (a.u.). For the sequence “TGAAATGCAATTGACAAGCATCCAAATCCCAGAAATGCCACGGAGTCACCTAGTGCAG”, the binding signal was 4590 fluorescence intensity (a.u.). With “GCAATTGACGACGAGAAATCAATCGAAAACGAAATAATTGCGGAGTCACCTAGTGCAG”, the binding signal is 9040 fluorescence intensity (a.u.). With “GGTTGCTTTGATGAATAATCAGTTCACACTGCGAGTGATTCGGAGTCACCTAGTGCAG”, the binding signal was 4800 fluorescence intensity (a.u.). Regarding “GTGGAAAATCATCAAATCAGTAAAGACTTTCTTGTAGTTGCGGAGTCACCTAGTGCAG”, the binding signal is 4500 fluorescence intensity (a.u.).

Consider “GAGCCTAATTACGCCATGATTTGACAATGTGGTGCTACAGCGGAGTCACCTAGTGCAG”, for which the binding signal is 39300 fluorescence intensity (a.u.).

For “CTAGTGTAATTAATTACTTGATTCATTGAGTATAAAGCTGCGGAGTCACCTAGTGCAG”, the binding signal is 45100 fluorescence intensity (a.u.). The value for “AAACATAATATATATGATTAATACACACGTATTAGTGTTACGGAGTCACCTAGTGCAG” was 10300 fluorescence intensity (a.u.). Turning to “ATCGTCTAAATTAGCACAAATAAATATTAATAACATGATACGGAGTCACCTAGTGCAG”, the binding signal was 4560 fluorescence intensity (a.u.).

“ATTCAGCTCAGTAAATCTGTTGATTGCTCGTTTCAAATCACGGAGTCACCTAGTGCAG”: the binding signal was 3390 fluorescence intensity (a.u.). “ATTTCCAAATTTGATTCTTTTCATATAGTTATAGCATATTCGGAGTCACCTAGTGCAG”: the binding signal is 3650 fluorescence intensity (a.u.). For the sequence “AAGTAGATTAGTATATTCCTTCCATTTTAAAATATAGCAACGGAGTCACCTAGTGCAG”, the binding signal was 5900 fluorescence intensity (a.u.).

For “TCTAAATTAATAAGCATATGATATGAATAAAACTAAAAGTCGGAGTCACCTAGTGCAG”, the binding signal is 14500 fluorescence intensity (a.u.). Under “GAAAATTGTTTATTTTGGAAACTAAACAAAGCCTTAAGCTCGGAGTCACCTAGTGCAG” stands 8250 fluorescence intensity (a.u.).

(Values after PMC7819943, “Rice protein-binding microarrays: a tool to detect cis-acting elements near promoter regions in rice”.)
